As usually defined, the IC50 is the concentration needed to halve the response being measured.

Lines with a small IC50 respond at low doses; fits outside the tested doses are given as limits. For AUC the same curve is integrated over the 256-fold range of doses and scaled to a fraction; values near 1 show little effect.

Compound in the test: COc1ccc(C2=N[C@@H](c3ccc(Cl)cc3)[C@@H](c3ccc(Cl)cc3)N2C(=O)N2CCNC(=O)C2)c(OC(C)C)c1 [Nutlin-3a]
Kind of test: Viability of human cancer cell lines after 72 h of drug (GDSC screen). How it is done:
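Human cancer cell lines in 384-well plates, medium with 10% serum, drug for 72 h over a 256-fold dose range (nine 2-fold or five 4-fold steps up to the top dose). Adherent lines were fixed and stained with the nucleic acid dye Syto60, suspension lines read with resazurin; signal relative to control wells, capped at 0 and 100%. One two-parameter sigmoid per drug and line, fitted in a mixed model over all curves with the slope shared within a line.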

On to PA-1 (ovary, adherent, top dose 8 µM), for which the AUC came out at 0.756 and the 50% inhibitory concentration (IC50) came out at 2.22 µM.
For “PA-TU-8902 (pancreas, adherent, top dose 8 µM)” the same measures were 0.981 and more than 8 µM.
For “PANC-02-03 (pancreas, adherent, top dose 8 µM)” the same measures were 0.98 and more than 8 µM.
For “PANC-03-27 (pancreas, adherent, top dose 8 µM)” the same measures were 0.985 and more than 8 µM.
Regarding “PANC-04-03 (pancreas, adherent, top dose 8 µM)”, the AUC turned out to be 0.958 and the IC50 was more than 8 µM.
The matching figures for “PANC-10-05 (pancreas, adherent, top dose 4 µM)”: 0.981 and more than 4 µM.
The matching figures for “PC-3 (prostate, adherent, top dose 4 µM)”: 0.971 and more than 4 µM.
The matching figures for “PC-3 [JPC-3] (lung adenocarcinoma, adherent, top dose 8 µM)”: 0.977 and more than 8 µM.
For the cell line “PC-14 (lung adenocarcinoma, adherent, top dose 8 µM)”, the AUC is 0.988 and the concentration for half-maximal inhibition (IC50) was more than 8 µM.
Consider “PCI-4B (head and neck, adherent, top dose 8 µM)”, for which the AUC turned out to be 0.964 and the IC50 was more than 8 µM.
The matching figures for “PCI-6A (head and neck, adherent, top dose 8 µM)”: 0.955 and more than 8 µM.
The matching figures for “PCI-15A (head and neck, adherent, top dose 8 µM)”: 0.988 and more than 8 µM.
For “PCI-30 (head and neck, adherent, top dose 8 µM)” the same measures were 0.95 and more than 8 µM.
Consider “PE/CA-PJ15 (head and neck, adherent, top dose 8 µM)”, for which the AUC is 0.955 and the IC50 is more than 8 µM.
The matching figures for PEO1 (ovary, adherent, top dose 8 µM): 0.986 and more than 8 µM.
The matching figures for “PF-382 (T-cell lymphoblastic leukaemia, suspension, top dose 8 µM)”: 0.991 and more than 8 µM.
As for “PFSK-1 (medulloblastoma, adherent, top dose 8 µM)”, the AUC turned out to be 0.937 and the IC50 was more than 8 µM.
For PL4 (pancreas, adherent, top dose 8 µM) the same measures were 0.987 and more than 8 µM.
The matching figures for “PSN1 (pancreas, adherent, top dose 8 µM)”: 0.991 and more than 8 µM.
For “PWR-1E (prostate, adherent, top dose 8 µM)”, the AUC came to 0.984 and the IC50 was more than 8 µM.
For “QGP-1 (pancreas, adherent, top dose 8 µM)” the same measures were 0.974 and more than 8 µM.
The matching figures for “QIMR-WIL (acute myeloid leukaemia, suspension, top dose 8 µM)”: 0.79 and 3.44 µM.
The matching figures for “RC-K8 (B-cell lymphoma, suspension, top dose 8 µM)”: 0.915 and more than 8 µM.
Take “RCC10RGB (kidney, adherent, top dose 8 µM)”: the AUC amounted to 0.852 and the IC50 is more than 8 µM.
The matching figures for “RCC-AB (kidney, adherent, top dose 8 µM)”: 0.831 and 7.38 µM.
For “RCC-ER (kidney, adherent, top dose 8 µM)” the same measures were 0.986 and more than 8 µM.
The matching figures for “RCC-FG2 (kidney, adherent, top dose 8 µM)”: 0.975 and more than 8 µM.
As to “RCC-JF (kidney, adherent, top dose 8 µM)”, the AUC came out at 0.772 and the IC50 was found to be 3.47 µM.
For “RCC-JW (kidney, adherent, top dose 8 µM)” the same measures were 0.796 and 3.85 µM.
The matching figures for “RCC-MF (kidney, adherent, top dose 8 µM)”: 0.867 and more than 8 µM.
On to “RCH-ACV (B-cell leukaemia, suspension, top dose 8 µM)”, for which the AUC was 0.757 and the IC50 stood at 2.32 µM.
For “RCM-1 (large intestine, adherent, top dose 8 µM)” the same measures were 0.977 and more than 8 µM.
The matching figures for “REH (B-cell leukaemia, suspension, top dose 8 µM)”: 0.879 and 7.69 µM.
The matching figures for “RERF-GC-1B (stomach, adherent, top dose 4 µM)”: 0.985 and more than 4 µM.
On to “RERF-LC-KJ (lung adenocarcinoma, adherent, top dose 8 µM)”, for which the AUC was found to be 0.984 and the IC50 is more than 8 µM.
For “RERF-LC-MS (lung adenocarcinoma, adherent, top dose 8 µM)” the same measures were 0.987 and more than 8 µM.
For “RERF-LC-Sq1 (lung squamous cell carcinoma, adherent, top dose 8 µM)” the same measures were 0.923 and more than 8 µM.
As for “RF-48 (stomach, adherent, top dose 8 µM)”, the AUC came to 0.87 and the IC50 was more than 8 µM.
For “RH-1 (rhabdomyosarcoma, adherent, top dose 8 µM)” the same measures were 0.976 and more than 8 µM.
The matching figures for “RH-18 (rhabdomyosarcoma, adherent, top dose 8 µM)”: 0.706 and 2.09 µM.
The matching figures for “RH-41 (rhabdomyosarcoma, adherent, top dose 4 µM)”: 0.963 and more than 4 µM.
RKN (ovary, adherent, top dose 8 µM): the AUC was found to be 0.961 and the half-maximal inhibitory concentration (IC50) is more than 8 µM.
The matching figures for “RL (B-cell lymphoma, suspension, top dose 8 µM)”: 0.99 and more than 8 µM.
For “RO82-W-1 (thyroid, adherent, top dose 8 µM)” the same measures were 0.908 and more than 8 µM.
As for “ROS-50 (B-cell leukaemia, suspension, top dose 8 µM)”, the AUC came out at 0.964 and the IC50 is more than 8 µM.
For “RPMI-2650 (head and neck, adherent, top dose 8 µM)” the same measures were 0.869 and more than 8 µM.
As to “RPMI-6666 (Hodgkin lymphoma, suspension, top dose 8 µM)”, the AUC worked out at 0.81 and the IC50 amounted to 5.29 µM.
For “RPMI-7951 (melanoma, adherent, top dose 8 µM)” the same measures were 0.978 and more than 8 µM.
For “RPMI-8226 (myeloma, suspension, top dose 8 µM)” the same measures were 0.981 and more than 8 µM.
For “RPMI-8402 (T-cell lymphoblastic leukaemia, suspension, top dose 8 µM)” the same measures were 0.98 and more than 8 µM.
“RPMI-8866 (chronic myeloid leukaemia, suspension, top dose 8 µM)”: the AUC was 0.673 and the IC50 is 1.46 µM.
For “RS4-11 (leukaemia, suspension, top dose 8 µM)” the same measures were 0.738 and 2.23 µM.
For RT4 (bladder, adherent, top dose 8 µM) the same measures were 0.987 and more than 8 µM.
For “RVH-421 (melanoma, adherent, top dose 8 µM)” the same measures were 0.801 and 5.72 µM.
“RXF393 (kidney, adherent, top dose 8 µM)”: the AUC is 0.922 and the IC50 was more than 8 µM.
Consider “Raji (Burkitt lymphoma, suspension, top dose 8 µM)”, for which the AUC was found to be 0.982 and the IC50 was more than 8 µM.
For “Ramos-2G6-4C10 (Burkitt lymphoma, suspension, top dose 8 µM)” the same measures were 0.941 and more than 8 µM.
For “SAS (head and neck, adherent, top dose 8 µM)”, the AUC was 0.951 and the IC50 was more than 8 µM.
The matching figures for “SAT (head and neck, adherent, top dose 8 µM)”: 0.913 and more than 8 µM.
For “SBC-1 (small cell lung carcinoma, suspension, top dose 8 µM)” the same measures were 0.989 and more than 8 µM.
For “SBC-3 (small cell lung carcinoma, adherent, top dose 8 µM)” the same measures were 0.862 and 5.86 µM.
As for “SBC-5 (small cell lung carcinoma, adherent, top dose 8 µM)”, the AUC is 0.989 and the IC50 is more than 8 µM.
The matching figures for “SCC90 (head and neck, adherent, top dose 8 µM)”: 0.981 and more than 8 µM.
As for “SCC-9 (head and neck, adherent, top dose 8 µM)”, the AUC worked out at 0.975 and the IC50 is more than 8 µM.
Regarding “SCC-15 (head and neck, adherent, top dose 8 µM)”, the AUC came to 0.947 and the IC50 is more than 8 µM.
For “SCC-25 (head and neck, adherent, top dose 8 µM)” the same measures were 0.983 and more than 8 µM.
The matching figures for SCH (stomach, adherent, top dose 8 µM): 0.982 and more than 8 µM.

The values above are taken from the supplement of paper PMC4967469.
